From the supplement of paper PMC4967469

Legend:
Assay in all cases: Viability of human cancer cell lines after 72 h of drug (GDSC screen)
ACHP (KIN001-260) = compound: N#Cc1c(C2CCNCC2)cc(-c2c(O)cccc2OCC2CC2)nc1N [ACHP (KIN001-260)]; details: top dose 20 µM; top dose inferred
Procedure: (§1)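 Human cancer cell lines in 384-well plates, medium with 10% serum, drug for 72 h over a 256-fold dose range (nine 2-fold or five 4-fold steps up to the top dose). Adherent lines were fixed and stained with the nucleic acid dye Syto60, suspension lines read with resazurin; signal relative to control wells, capped at 0 and 100%. One two-parameter sigmoid per drug and line, fitted in a mixed model over all curves with the slope shared within a line.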

CAY10603 = compound: CC(C)(C)OC(=O)Nc1ccc(-c2cc(C(=O)NCCCCCCC(=O)NO)no2)cc1 [CAY10603]; details: top dose 20 µM; top dose inferred
Procedure: as §1

CH5424802 = compound: CCc1cc2c(cc1N1CCC(N3CCOCC3)CC1)C(C)(C)c1[nH]c3cc(C#N)ccc3c1C2=O [CH5424802]; details: top dose 5.12 µM; top dose inferred
Procedure: as §1

XMD8-92 = compound: CCOc1cc(N2CCC(O)CC2)ccc1Nc1ncc2c(n1)N(C)c1ccccc1C(=O)N2C [XMD8-92]; details: top dose 10 µM; top dose inferred
Procedure: as §1

Cell Line | AUC (ACHP (KIN001-260)) | IC50 (ACHP (KIN001-260)) | AUC (CAY10603) | IC50 (CAY10603) | AUC (CH5424802) | IC50 (CH5424802) | AUC (XMD8-92) | IC50 (XMD8-92)
8-MG-BA (glioma, adherent) | 0.972 | > 20 µM | 0.598 | 2.27 µM | 0.966 | > 5.12 µM | 0.845 | 6.56 µM
22RV1 (prostate, adherent) | 0.954 | > 20 µM | 0.431 | 0.773 µM | 0.979 | > 5.12 µM | 0.967 | > 10 µM
451Lu (melanoma, adherent) | 0.989 | > 20 µM | 0.669 | 3.62 µM | 0.988 | > 5.12 µM | 0.864 | 8.14 µM
639-V (bladder, adherent) | 0.991 | > 20 µM | 0.737 | 5.23 µM | 0.991 | > 5.12 µM | 0.92 | > 10 µM
8305C (thyroid, adherent) | 0.972 | > 20 µM | 0.982 | > 20 µM | 0.968 | > 5.12 µM | 0.892 | > 10 µM
8505C (thyroid, adherent) | 0.95 | > 20 µM | 0.495 | 1.21 µM | 0.973 | > 5.12 µM | 0.887 | > 10 µM
A101D (melanoma, adherent) | 0.939 | > 20 µM | 0.566 | 1.98 µM | 0.981 | > 5.12 µM | 0.769 | 4.65 µM
A253 (head and neck, adherent) | 0.988 | > 20 µM | 0.76 | 6.9 µM | 0.988 | > 5.12 µM | 0.98 | > 10 µM
A375 (melanoma, adherent) | 0.979 | > 20 µM | 0.448 | 0.929 µM |  |  | 0.911 | 9.87 µM
A388 (skin, adherent) | 0.981 | > 20 µM | 0.767 | 8.48 µM | 0.983 | > 5.12 µM | 0.921 | > 10 µM
A427 (non-small cell lung carcinoma, adherent) | 0.98 | > 20 µM | 0.76 | 7.09 µM | 0.978 | > 5.12 µM | 0.985 | > 10 µM
A498 (kidney, adherent) | 0.977 | > 20 µM | 0.855 | > 20 µM | 0.944 | > 5.12 µM | 0.976 | > 10 µM
A549 (lung adenocarcinoma, adherent) |  |  |  |  |  |  | 0.894 | > 10 µM
A673 (rhabdomyosarcoma, adherent) | 0.985 | > 20 µM | 0.486 | 1.15 µM | 0.99 | > 5.12 µM | 0.981 | > 10 µM
A704 (kidney, adherent) | 0.974 | > 20 µM |  |  | 0.982 | > 5.12 µM | 0.929 | > 10 µM
A2058 (melanoma, adherent) | 0.99 | > 20 µM | 0.847 | 12.4 µM | 0.99 | > 5.12 µM | 0.895 | 9.9 µM
A2780 (ovary, semi-adherent) | 0.884 | > 20 µM | 0.46 | 0.966 µM | 0.957 | > 5.12 µM | 0.927 | > 10 µM
ABC-1 (lung adenocarcinoma, adherent) | 0.966 | > 20 µM | 0.521 | 1.45 µM | 0.976 | > 5.12 µM | 0.935 | > 10 µM
AGS (stomach, adherent) | 0.986 | > 20 µM | 0.507 | 1.3 µM | 0.99 | > 5.12 µM | 0.846 | 6.21 µM
ALL-PO (lymphoblastic leukaemia, suspension) | 0.705 | 4.92 µM | 0.122 | < 0.0781 µM | 0.711 | 1.31 µM | 0.848 | 8.1 µM
CL-34 (large intestine, adherent) |  |  |  |  |  |  | 0.931 | > 10 µM
COLO-829 (melanoma, adherent) | 0.979 | > 20 µM | 0.609 | 2.88 µM |  |  | 0.968 | > 10 µM
DIFI (large intestine, adherent) |  |  |  |  |  |  | 0.928 | > 10 µM
EW-22 (Ewing sarcoma, adherent) |  |  |  |  |  |  | 0.909 | > 10 µM
GAK (melanoma, adherent) | 0.954 | > 20 µM | 0.665 | 3.5 µM |  |  | 0.929 | > 10 µM
H290 (mesothelioma, adherent) |  |  |  |  | 0.979 | > 5.12 µM | 0.867 | 7.78 µM
H2810 (mesothelioma, adherent) |  |  |  |  |  |  | 0.88 | > 10 µM
HCC202 (breast, adherent) | 0.966 | > 20 µM | 0.524 | 1.49 µM |  |  | 0.968 | > 10 µM
HCC-366 (non-small cell lung carcinoma, adherent) |  |  |  |  |  |  | 0.971 | > 10 µM

A lower IC50 marks a more sensitive line; a fit beyond the top or the lowest dose is shown as a bound at that dose. The AUC spans the tested range (256-fold, ending at the top dose) of the same fit; it is 1 without any effect and falls as sensitivity rises. Any top dose called inferred was calculated from the reported fits.
